Measured values published in PubChem BioAssay AID652104 (National Center for Advancing Translational Sciences (NCATS), 2013).
Out of some 410,000 compounds screened, about 7,200 (1.8%) were called active. Inconclusive results, whose numbers are uncertain, are shown with a selection of clear calls. Calls follow the shape of the dose curve; as a rule, active = well fitted activation curve with a large enough effect; inconclusive = small, poorly fitted or top-dose-only effect, or another doubt; inactive = no such curve, though single readings can be large or run the other way. A potency beside an inconclusive call is a rough fit, not a confirmed value.

Experiment: qHTS of TDP-43 Inhibitors; also: nearly all actives have a fitted effect of over 50% in size; as to growth rescue (activation): % of control where 0% means no effect
Conditions: TDP-43 expressing yeast growth rescue, BacTiter-Glo, 24 h; growth rescue (activation): at 46.1 µM (top of the series) unless noted
Method in brief: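 Galactose-induced TDP-43 yeast, OD600=0.02, compound pinned; 24 hr, 30 deg C; BacTiter-Glo luminescence for growth. Inhibitors of TDP-43 toxicity read as activators.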
Potency is read from the fitted curve at half-maximal effect; tags tell the direction and shape of the fitted curve.

Potency, inactive:
Cc1ccc(NC(=O)CCC(=O)NNC(=S)Nc2ccccc2)c(C)c1
CCc1cc(=O)oc2c(C)c3c(cc12)CN(CCc1ccccc1OC)CO3
O=C(Cn1nc(-c2ccc(Cl)cc2)c2ccccc2c1=O)Nc1cccc(C(F)(F)F)c1
O=C(Nc1ccc2c(c1)OCO2)c1cc(C2CCCCN2S(=O)(=O)c2cccs2)on1 (stereo not given)
Cc1cccc(Cn2c(C(C)O)nc3ccccc32)c1 (stereo not given)
O=c1cc(CSc2n[nH]c(-c3ccncc3)n2)nc2sccn12
O=C(Nc1cccnc1)c1coc(=O)c2ccccc12
C[C@H](CO)N1C[C@H](C)[C@@H](CN(C)S(=O)(=O)c2ccc(F)cc2)Oc2c(NC(=O)NC3CCCCC3)cccc2C1=O
OC(c1ccccc1)c1ncc(-c2ccc(Oc3ccccc3)cc2)[nH]1 (stereo not given)

Potency, active:
Fc1ccc(-c2nc3ccc(Br)cn3c2Cc2cccc(Cl)c2)cc1 35.5 µM
CS(=O)(=O)c1nc([N+](=O)[O-])nn1CCCc1ccccc1 17.8 µM
COc1ccc(C)cc1NC(=O)COCc1cc(-c2ccc(F)cc2)on1 35.5 µM
N/C(=N\OC(=O)/C=C/c1ccccc1)c1ccccc1 17.8 µM
CCCCC1Cc2[nH][nH]c(=O)c2C(c2ccc(Cl)cc2)O1 (stereo not given) 11.2 µM
c1ccc(-c2noc(CSc3nnnn3C3CCCCC3)n2)cc1 12.6 µM
COc1ccc(S(=O)(=O)N2CCOC23CCN(C(=O)c2c(F)cccc2Cl)CC3)cc1 17.8 µM
CCOC(=O)C(C(=O)OCC)C(c1ccccc1)N1CCN(c2ccccc2)CC1 (stereo not given) 12.6 µM

Potency, inconclusive:
COc1ccc(CN(C#N)c2nc(SC)nc(N(C)C)n2)cc1 12.6 µM [activator, partial curve]
Cc1ccc(C)c(N2CCN(C(=O)CCCCn3c(=O)[nH]c4ccccc4c3=O)CC2)c1 5.01 µM [activator, partial curve, poor fit]
O=C(Nc1ncccc1Cl)C(Sc1ccccc1)c1ccccc1 (stereo not given) 14.1 µM [activator, single point]
COc1ccsc1NC(=O)OCc1ccc(Cl)cc1 22.4 µM [activator, single point]
Cc1sc2ncnc(NCc3ccccc3)c2c1C 2.51 µM [activator, full curve, poor fit]
O=C(CCSCc1cnn(-c2ccccc2)c1-n1cccc1)NCc1ccccc1Cl 15.8 µM [activator, single point]
O=C(NC(=S)Nc1ccc(CN2CCOCC2)cc1)c1ccccc1[N+](=O)[O-] 3.16 µM [activator, partial curve]
CC(=O)c1ccc(NC(=O)CCOc2cc(C)ccc2C)cc1 11.2 µM [activator, single point]
CCN(CC)C(=O)c1csc([C@@H]2O[C@H](CO)[C@H](O)[C@H](O)[C@H]2O)n1 31.6 µM [activator, partial curve, poor fit]
Cc1cc(C)nc(SCC(=O)c2ccc([N+](=O)[O-])cc2)n1 22.4 µM [activator, single point]
CCc1ccc2oc(-c3ccc(NC(=O)c4cc5ccccc5o4)cc3)nc2c1 7.08 µM [activator, partial curve, poor fit]
COc1cccc(Nc2nc3ccccc3c3nncn23)c1 35.5 µM [activator, partial curve, poor fit]
CCOC(=O)/C=C1\CN(CCC(C)C)S(=O)(=O)c2ccccc21 5.01 µM [activator, partial curve]
COC(=O)c1scc(-c2ccc(C)cc2)c1S(=O)(=O)N1CCN(c2ccc(C)cc2C)CC1 20 µM [activator, partial curve]
CC(=O)c1cccc(CN2CCCC(CCC(=O)NCc3ccc(F)c(F)c3)C2)c1 (stereo not given) 3.16 µM [activator, partial curve]
Cc1ccc(C(=O)NC(=S)NNC(=O)c2ccc([N+](=O)[O-])cc2)cc1 6.31 µM [activator, partial curve]
Cc1nn(Cc2noc(C(=O)NC(C)c3ccccc3)n2)c(C)c1Br (stereo not given) 35.5 µM [activator, single point]
COCCn1c(SCc2ccc(OC)c(F)c2)nc2ccccc2c1=O 15.8 µM [activator, single point]
O=C(NNC1=C(C(=O)C(F)(F)F)CCC1)c1ccncc1 3.55 µM [activator, full curve]
COc1ccc2c(c1)CCC1C2CCC2(C)C(O)C(=O)CC12 (stereo not given) 35.5 µM [activator, single point]
Cc1cc(C(O)c2ncc(-c3ccccc3C)[nH]2)ccc1F (stereo not given) 3.98 µM [activator, full curve, poor fit]
c1ccc(C2=NC(c3ccccc3)CC2)cc1 (stereo not given) 11.2 µM [activator, partial curve]
N#Cc1c(Cl)cccc1N1CCSCC1 7.94 µM [activator, partial curve]
Cc1ccc(NC(=O)CSCc2ccc(F)cc2)cc1 2.82 µM [activator, partial curve]
COc1ccc(CCNS(=O)(=O)c2ccc(Cl)s2)cc1OC 7.94 µM [activator, partial curve]
O=C(NCCc1ccc2c(c1)OCO2)Oc1ccccc1 35.5 µM [activator, single point]
CCCn1nnc(NC(=O)COc2ccc(C3CCCCC3)cc2)n1 25.1 µM [activator, single point]

Growth rescue (activation), inconclusive:
C=C1C(=O)[C@]23C[C@H]1CCC2[C@@]1(C)C(C[C@@H]3O)[C@](C)(C(=O)OC)CC[C@@H]1OC(C)=O (stereo not given in full) -92.7% [activator]
